Binding signal data for 31 molecules are collected here from paper PMC9911399, “Two distinct binding modes provide the RNA-binding protein RbFox with extraordinary sequence specificity”.

Changes are numbered by the printed parent chain; changes in the protein carry UniProt numbers. The list shows a part of the results.

The chains are these.
T1: RBFOX1 RRM RbFoxmut (Fox-RRM*) (Homo sapiens, UniProt Q9NWB1 109-208, R118D;E147R;N151S;E152T)
T1 sequence: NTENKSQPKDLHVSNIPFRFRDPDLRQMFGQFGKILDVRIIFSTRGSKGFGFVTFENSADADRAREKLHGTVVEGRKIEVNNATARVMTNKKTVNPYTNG

B1: CGCUUCC (DNA:RNA)
RNA: GGGAGACCGGAAUUCAGAUUGUCCCGCUUCCUUAAAUCCCGUCGUAGCCACCA
DNA 1: CAATCTGAATTCCGGTCTCCC
DNA 2: TGGTGGCTACGACGGGATT
B2: AUGGGCA (DNA:RNA)
RNA: B1 RNA with C25A, G26U, C27G, U28G, U29G, C31A
DNA 1: CAATCTGAATTCCGGTCTCCC
DNA 2: TGGTGGCTACGACGGGATT
B3: GUGUGCG (DNA:RNA)
RNA: B1 RNA with C25G, G26U, C27G, U29G, C31G
DNA 1: CAATCTGAATTCCGGTCTCCC
DNA 2: TGGTGGCTACGACGGGATT
B4: UUUAUGU (DNA:RNA)
RNA: B1 RNA with C25U, G26U, C27U, U28A, C30G, C31U
DNA 1: CAATCTGAATTCCGGTCTCCC
DNA 2: TGGTGGCTACGACGGGATT
B5: UAAUUAG (DNA:RNA)
RNA: B1 RNA with C25U, G26A, C27A, C30A, C31G
DNA 1: CAATCTGAATTCCGGTCTCCC
DNA 2: TGGTGGCTACGACGGGATT
B6: GUACCUA (DNA:RNA)
RNA: GGGAGACCGGAAUUCAGAUUGUCCGUACCUAUUAAAUCCCGUCGUAGCCACCA
DNA 1: CAATCTGAATTCCGGTCTCCC
DNA 2: TGGTGGCTACGACGGGATT
B7: AAACUAG (DNA:RNA)
RNA: B6 RNA with G25A, U26A, C29U, U30A, A31G
DNA 1: CAATCTGAATTCCGGTCTCCC
DNA 2: TGGTGGCTACGACGGGATT
B8: GUCAGAA (DNA:RNA)
RNA: B6 RNA with A27C, C28A, C29G, U30A
DNA 1: CAATCTGAATTCCGGTCTCCC
DNA 2: TGGTGGCTACGACGGGATT
B9: UGGGACC (DNA:RNA)
RNA: B1 RNA with C25U, C27G, U28G, U29A
DNA 1: CAATCTGAATTCCGGTCTCCC
DNA 2: TGGTGGCTACGACGGGATT
B10: AGGUGAG (DNA:RNA)
RNA: B1 RNA with C25A, C27G, U29G, C30A, C31G
DNA 1: CAATCTGAATTCCGGTCTCCC
DNA 2: TGGTGGCTACGACGGGATT
B11: CUUGUCC (DNA:RNA)
RNA: B1 RNA with G26U, C27U, U28G
DNA 1: CAATCTGAATTCCGGTCTCCC
DNA 2: TGGTGGCTACGACGGGATT
B12: CAGAAGG (DNA:RNA)
RNA: B1 RNA with G26A, C27G, U28A, U29A, C30G, C31G
DNA 1: CAATCTGAATTCCGGTCTCCC
DNA 2: TGGTGGCTACGACGGGATT
B13: GCCAAUC (DNA:RNA)
RNA: B1 RNA with C25G, G26C, U28A, U29A, C30U
DNA 1: CAATCTGAATTCCGGTCTCCC
DNA 2: TGGTGGCTACGACGGGATT
B14: GGGGACU (DNA:RNA)
RNA: B1 RNA with C25G, C27G, U28G, U29A, C31U
DNA 1: CAATCTGAATTCCGGTCTCCC
DNA 2: TGGTGGCTACGACGGGATT
B15: CACGCGA (DNA:RNA)
RNA: B1 RNA with G26A, U28G, U29C, C30G, C31A
DNA 1: CAATCTGAATTCCGGTCTCCC
DNA 2: TGGTGGCTACGACGGGATT
B16: AAUGCAG (DNA:RNA)
RNA: B6 RNA with G25A, U26A, A27U, C28G, U30A, A31G
DNA 1: CAATCTGAATTCCGGTCTCCC
DNA 2: TGGTGGCTACGACGGGATT
B17: GCCACUC (DNA:RNA)
RNA: B6 RNA with U26C, A27C, C28A, A31C
DNA 1: CAATCTGAATTCCGGTCTCCC
DNA 2: TGGTGGCTACGACGGGATT
B18: UGAGCUU (DNA:RNA)
RNA: B6 RNA with G25U, U26G, C28G, A31U
DNA 1: CAATCTGAATTCCGGTCTCCC
DNA 2: TGGTGGCTACGACGGGATT
B19: AGCUUUG (DNA:RNA)
RNA: B1 RNA with C25A, C30U, C31G
DNA 1: CAATCTGAATTCCGGTCTCCC
DNA 2: TGGTGGCTACGACGGGATT
B20: CUUACUG (DNA:RNA)
RNA: B6 RNA with G25C, A27U, C28A, A31G
DNA 1: CAATCTGAATTCCGGTCTCCC
DNA 2: TGGTGGCTACGACGGGATT
B21: GCUUCCC (DNA:RNA)
RNA: B1 RNA with C25G, G26C, C27U, U29C
DNA 1: CAATCTGAATTCCGGTCTCCC
DNA 2: TGGTGGCTACGACGGGATT
B22: UUUAACG (DNA:RNA)
RNA: B1 RNA with C25U, G26U, C27U, U28A, U29A, C31G
DNA 1: CAATCTGAATTCCGGTCTCCC
DNA 2: TGGTGGCTACGACGGGATT
B23: GUUUCGA (DNA:RNA)
RNA: B6 RNA with A27U, C28U, U30G
DNA 1: CAATCTGAATTCCGGTCTCCC
DNA 2: TGGTGGCTACGACGGGATT
B24: GACGCCC (DNA:RNA)
RNA: B1 RNA with C25G, G26A, U28G, U29C
DNA 1: CAATCTGAATTCCGGTCTCCC
DNA 2: TGGTGGCTACGACGGGATT
B25: ACUUUUG (DNA:RNA)
RNA: B1 RNA with C25A, G26C, C27U, C30U, C31G
DNA 1: CAATCTGAATTCCGGTCTCCC
DNA 2: TGGTGGCTACGACGGGATT
B26: UGCCGUC (DNA:RNA)
RNA: B1 RNA with C25U, U28C, U29G, C30U
DNA 1: CAATCTGAATTCCGGTCTCCC
DNA 2: TGGTGGCTACGACGGGATT
B27: UCUCUAU (DNA:RNA)
RNA: B1 RNA with C25U, G26C, C27U, U28C, C30A, C31U
DNA 1: CAATCTGAATTCCGGTCTCCC
DNA 2: TGGTGGCTACGACGGGATT
B28: AAUCUCG (DNA:RNA)
RNA: B1 RNA with C25A, G26A, C27U, U28C, C31G
DNA 1: CAATCTGAATTCCGGTCTCCC
DNA 2: TGGTGGCTACGACGGGATT
B29: CCAAAUG (DNA:RNA)
RNA: B6 RNA with G25C, U26C, C28A, C29A, A31G
DNA 1: CAATCTGAATTCCGGTCTCCC
DNA 2: TGGTGGCTACGACGGGATT
B30: GUGAAGA (DNA:RNA)
RNA: B6 RNA with A27G, C28A, C29A, U30G
DNA 1: CAATCTGAATTCCGGTCTCCC
DNA 2: TGGTGGCTACGACGGGATT
B31: GUCGAGG (DNA:RNA)
RNA: B6 RNA with A27C, C28G, C29A, U30G, A31G
DNA 1: CAATCTGAATTCCGGTCTCCC
DNA 2: TGGTGGCTACGACGGGATT

This assay concerns the target T1, RBFOX1 RRM RbFoxmut (Fox-RRM*). Description: EMSA; HiTS-Eq, 1 nM pool, 10 min; buffer printed only for the single-RNA assays: 10 mM Tris pH 7.5, 150 mM NaCl, 3.4 mM EDTA, 0.001% NP-40, 30 C. Conditions: tags: His6 N-terminal (pET28a); label: 5' 32P. The gist of the method:
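Relative association constants, normalised to the cognate motif, were derived by comparing read counts of each RNA species with those of the control reaction. The RNA sequenced was the free fraction, separated by 8% native PAGE after a 10 min equilibration in 50 µL of 1 nM 5′-radiolabelled RNA (7 randomized nucleotides) with increasing concentrations of purified wild-type or mutant RbFox RRM.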
B1: the binding signal is 0.0933 KA relative to UGCAUGU.
The same measure for B2: 0.0919 KA relative to UGCAUGU; for B3: 0.314 KA relative to UGCAUGU; for B4: 0.149 KA relative to UGCAUGU.
Take B5: the binding signal is 0.1 KA relative to UGCAUGU.
As to B6, the binding signal was 0.0857 KA relative to UGCAUGU.
Consider B7, for which the binding signal is 0.117 KA relative to UGCAUGU.
The same measure for B8: 0.0792 KA relative to UGCAUGU; for B9: 0.107 KA relative to UGCAUGU; for B10: 0.119 KA relative to UGCAUGU.
On to B11, for which the binding signal was 0.107 KA relative to UGCAUGU.
The same measure for B12: 0.0734 KA relative to UGCAUGU; for B13: 0.0382 KA relative to UGCAUGU; for B14: 0.0795 KA relative to UGCAUGU.
On to B15, for which the binding signal is 0.0691 KA relative to UGCAUGU.
Regarding B16, the binding signal is 0.103 KA relative to UGCAUGU.
As for B17, the binding signal is 0.0437 KA relative to UGCAUGU.
As to B18, the binding signal is 0.0836 KA relative to UGCAUGU.
As to B19, the binding signal is 0.119 KA relative to UGCAUGU.
On to B20, for which the binding signal is 0.119 KA relative to UGCAUGU.
With B21, the binding signal was 0.068 KA relative to UGCAUGU.
Take B22: the binding signal is 0.112 KA relative to UGCAUGU.
B23: the binding signal was 0.217 KA relative to UGCAUGU.
In the case of B24, the binding signal was 0.0796 KA relative to UGCAUGU.
As for B25, the binding signal was 0.116 KA relative to UGCAUGU.
In the case of B26, the binding signal is 0.0894 KA relative to UGCAUGU.
On to B27, for which the binding signal is 0.103 KA relative to UGCAUGU.
Regarding B28, the binding signal is 0.063 KA relative to UGCAUGU.
As for B29, the binding signal is 0.131 KA relative to UGCAUGU.
As for B30, the binding signal was 0.119 KA relative to UGCAUGU.
Consider B31, for which the binding signal was 0.0976 KA relative to UGCAUGU.
